The IC50 is the concentration that inhibits the measured activity by half. Low readings indicate higher potency, high ones lower potency. Usually IC90 stands for the point of the concentration-response curve where the effect stands at 90%. High values mean a need for much substance, low ones an effect from little substance.

Molecules are shown by their SMILES. Starred links: 1 amine or outer side, 2 acyl side, 3 side chain; linkers in the order of their positions; H or OH if unused. Non-standard residues stand in square brackets, D forms with d. Residues, ends and D or L forms follow the SMILES beside them. Groups on a side chain read outwards from the residue. *: point of attachment. Sphinganine = CCCCCCCCCCCCCCC[C@@H](O)[C@H](CO)N*; CO = O=C([*:1])[*:2]

The results in this text go back to patent publication US20150045291A1, “LIPOPEPTIDE CONJUGATES COMPRISING SPHINGOLIPID AND HIV GP41 DERIVED PEPTIDES” (priority 2012, published 2015).

The test system of the test is HIV-1 envelope mediated cell-cell fusion (TZM-bl target cells and HL 2/3 effector cells). As to conditions: cell-cell fusion system, TZM-bl target cells and HL 2/3 effector cells (footnote d). The procedure: Cell-cell fusion assay. Effector cells were the ENV expressing cells HL2-3, a Hela derived cell-line which constitutively expresses the HXB2 strain of the HIV-1 ENV glycoprotein along the Tat protein, and as target cells, TZM-bl cells were used. The fusion of HL2-3 cells with TZM-bl cells was assessed through luciferase expression. The TZM-bl cells were seeded at 2×10^4 cells/well overnight in a 96 well plates. […] The cells were cocultured at 37° C. for 6 hours to allow the fusion to occur.

As to `CCCCCCCCCCCCCCC[C@@H](O)[C@H](CO)NC(=O)NCCCC[C@H](NC(=O)[C@@H](NC(=O)[C@H](CCC(=O)O)NC(=O)[C@H](CCCNC(=N)N)NC(=O)[C@H](CC(=O)O)NC(=O)[C@@H](Cc1c[nH]c2ccccc12)NC(=O)[C@@H](CCC(=O)O)NC(=O)[C@H](CCSC)NC(=O)[C@@H](Cc1c[nH]c2ccccc12)NC(=O)[C@@H](N)[C@@H](C)CC)[C@@H](C)CC)C(N)=O` [D-peptide-sphing, IwMewDREIK-Sphinganine] (H-I[dW]M[dE][dW]DREIK([CO-Sphinganine])-NH2; N-terminus assumed), the IC50 was 288 ± 156 nM and it took 2670 ± 540 nM to reach the 90% level (IC90).
